From PubChem BioAssay AID493208 (National Center for Advancing Translational Sciences (NCATS), 2011)
Among all 44,000 compounds or so, about 340 (0.77%) were called active. Inconclusive results (about 5%) are left out. Calls follow the shape of the dose curve; as a rule, active = well fitted inhibition curve with a large enough effect; inconclusive = small, poorly fitted or top-dose-only effect; inactive = flat fitted curve, though single readings scatter. Some of the results follow.

Experiment: Acumen qHTS Assay for Inhibitors of the mTORC1 Signaling Pathway in MEF (Tsc2-/-, p53-/-) Cells: Sytravon;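 also: plate controls were DMSO for no effect and rapamycin for full effect; nearly all actives have a fitted effect of over 50% in size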
Conditions: phospho-rpS6 immunofluorescence/PI, 24 h; series mostly up to 38.3 µM; activity change, negative = inhibition: at the top concentration
In short: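 Immunofluorescence of rpS6 phosphorylation in Tsc2-/-, p53-/- MEFs after 24 h compound exposure, normalized to propidium iodide signal. Activity is expressed as % positive cells, thresholded with 7.5 nM rapamycin.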

Activity change, negative = inhibition, inactive:
COc1ccc(S(=O)(=O)Nc2c(C)nc3nc(C)[nH]n3c2=O)cc1 -17.7%
CCCN(C(=O)c1cc2c(=O)[nH]c3ccc(C)cc3c2s1)c1ccc(CC)cc1 -7.24%
CC1CCN(C(=O)c2cc(-c3ccc(Br)cc3)on2)CC1 -3.99%
CCOC(=O)C1CCCN(C(=O)c2nn(-c3ccc(C)cc3)c(=O)n(C)c2=O)C1 (stereo not drawn) 0.115%
CCOc1ccc(CNS(=O)(=O)c2ccc3c(c2)CCCN3C(C)=O)cc1OC -28.9%
COc1ccc(C2=C(C)C(=O)N(Cc3ccc(C(=O)NCc4cccc(C)c4)cc3)S2(=O)=O)cc1 -12.1%
COc1ccc2c(c1)c(N1CCCC1=O)c(C(=O)Nc1ccccc1C(F)(F)F)n2C -1.04%
COc1ccc(-c2noc(N3CCC(C(=O)N4CCN(c5cccc(C)c5C)CC4)CC3)n2)cc1 0.547%
COc1ccc(C2=NC(c3ccncc3)=Nc3ccc(OC)cc3N2)cc1 1.29%
CCOc1ccc(NC(=O)CCNS(=O)(=O)c2cccc3nonc23)cc1 4.41%
O=C(COc1ccc(F)cc1)Nc1ccc2nc(SCC(=O)N3CCOCC3)sc2c1 -11.2%
COc1ccc(-c2noc(COc3cc(C)ccc3C)n2)cc1OC -13%
O=C1[C@@H]2CSC(c3ccc(Cl)cc3)N2C(=O)N1c1ccccc1 (stereo partly drawn) -9.23%
CC(C)c1ccc(N2C(=O)CSC23C(=O)N(C)c2ccccc23)cc1 (stereo not drawn) -2.97%
O=C1CCCc2cc(S(=O)(=O)N3CCCC(C(=O)NCc4ccccc4)C3)ccc2N1 (stereo not drawn) -2.84%
CC(=O)c1cccc(NC(=O)c2nc(-c3ccccc3)n(-c3ccccc3)n2)c1 3.77%
Cc1cc(C)c(NC(=O)CN(C)S(=O)(=O)c2ccc3c(c2)CCC(=O)N3)c(C)c1 -2.23%
COc1cc2c(cc1OC)n(Cc1cccc(C(F)(F)F)c1)c(=O)n1nc(-c3ccccc3)nc21 1.02%
COc1cccc(NC(=O)CCNS(=O)(=O)c2ccc3c(c2)oc(=O)n3C)c1 -0.982%
COc1ccc(CNC(=O)c2cc3c(=O)n(Cc4ccco4)ccc3nc2C)cc1 -7.93%
Cc1cc(C)c(NC(=O)CCS(=O)(=O)c2cc3c(cc2Cl)NC(=O)CO3)c(C)c1 0.427%
CCOc1ccc(NS(=O)(=O)c2cc3c(cc2Cl)NC(=O)CO3)cc1 -14%
CC(=O)Nc1ccc(NC(=O)CCCn2nc(C)c3sc4ccccc4c3c2=O)cc1 0.769%
CCOc1ccc(N(C)S(=O)(=O)c2ccc3c(c2)CCCN3C(C)=O)cc1 -7.34%
O=C(CSCn1nnc2c(=O)[nH]c(Cc3ccc(F)cc3)nc21)Nc1cccc(C(F)(F)F)c1 -4.76%
COc1cc2c(cc1OC)C(COc1cccc(C(F)(F)F)c1)N(C(=O)c1ccc(S(=O)(=O)N3CCCC3)cc1)CC2 (stereo not drawn) 2.35%
CCc1ccccc1NC(=O)C(=O)NCCCN1CCOCC1 -3.31%
CCC(C)NC(=O)C1CCN(S(=O)(=O)c2ccc3c(c2)CCCN3C(C)=O)CC1 (stereo not drawn) 0.429%
CCn1cc(C(=O)N2CCN(c3ccc(C)cc3)C(C)C2)c(=O)c2cc(S(=O)(=O)N3CCCC3)ccc21 (stereo not drawn) 0.236%
CNC(=O)CCCN1C(=O)c2cccnc2Sc2ccccc21 -2.94%
CCOc1cc(C(=O)NCCc2sc(-c3ccc(F)cc3)nc2C)cc(OCC)c1OCC 0.196%
Cc1nc2ccc(S(=O)(=O)N(CC(=O)Nc3ccc(F)cc3F)Cc3ccccc3)cc2s1 -10.4%
CCOc1ccc(NC(=O)c2ccc3[nH]c(C)c(C)c3c2)cc1 4.79%
Cc1ccc(S(=O)(=O)Nc2cccc(-c3cn4cccc(C)c4n3)c2)c(C)c1 -13.1%
O=C(Cn1c(=O)c2cccn2c2cccnc21)NCc1cccc(F)c1 -3.79%
O=C(Cn1c(SCc2ccccc2F)nc2ccncc21)Nc1ccccc1C(F)(F)F 1.66%
CCCCN(C)C(=O)c1cn(C)c2ccc(S(=O)(=O)N3CCC(C)CC3)cc2c1=O -8.08%
O=C(Cn1ccc2cc(S(=O)(=O)N3CCCCC3)ccc21)NCCc1ccccc1Cl -14.2%
COc1ccccc1NC(=O)Cn1c(=O)n(Cc2ccccc2)c(=O)c2c1c1cc(C)ccc1n2C 0.258%
Cc1ccsc1CN1CCc2nc(Nc3ccccc3)ncc2C1 2.15%
CC(NC(=O)CSc1n[nH]c(-c2ccccc2Cl)n1)c1nc2ccccc2[nH]1 (stereo not drawn) -11.7%
CCNc1nc(NCc2ccc(F)cc2)c2cnn(C)c2n1 6.65%
CC1=C(C(=O)Nc2cccc(Cl)c2C)C2(CCCCCC2)OC1=O -11.5%
CC1CCN(S(=O)(=O)c2ccc3c(c2)CCN3)CC1 0%
CCc1ccc(S(=O)(=O)c2nnn3c2nc(Nc2cc(OC)ccc2OC)c2sccc23)cc1 3.03%
COc1ccccc1Nc1sc(C(=O)c2ccc(C)cc2C)c(N)c1S(=O)(=O)c1ccccc1 -11%
Cc1c(C(=O)Nc2nc(-c3ccc(F)cc3)ns2)oc2ccc(Cl)cc12 -0.138%
Cc1ccc(CCNC(=O)CS(=O)Cc2nc(-c3ccccc3Cl)oc2C)cc1 (stereo not drawn) 0.968%
O=C(Cc1ccccc1)Nc1sc2c(c1C(=O)Nc1ccc(Br)cc1)CCC2 9.61%
Cc1ccc2oc(C(=O)Nc3cccc(Cl)c3)cc(=O)c2c1 -0.358%
COc1ccccc1C(=O)Nc1ccccc1OCc1cc(=O)n2ccccc2n1 -2.94%
COc1cccc(N2CC(NC(=O)c3ccc(S(=O)(=O)N4CCOCC4)cc3)CC2=O)c1 (stereo not drawn) 0.215%
O=C(NCCc1ccccc1)c1nc(-c2ccc(Cl)cc2)n2c1CCCCC2 -4.21%
COc1ccc(CNc2nc3c(-c4ccccc4)nnn3c3ccccc23)cc1 1.06%
CC1CCCc2sc3nc(SCC(=O)c4ccc(Br)cc4)nc(N)c3c21 (stereo not drawn) -2.49%
Cc1cc(C)cc(OCC(=O)Nc2c(C)ccc3nsnc23)c1 -1.87%
COc1ccc(S(=O)(=O)c2cnc3ccc(Cl)cc3c2N2CCCCC2C)cc1 (stereo not drawn) -8%
Cc1ccccc1NC(=O)CSc1nc2nccnc2c(=O)n1CCc1c[nH]c2ccccc12 -3.39%
CCOc1ccc(N(CC)S(=O)(=O)c2cc(Br)cc3c2N(C(C)=O)C(C)C3)cc1 (stereo not drawn) 9.36%
COc1ccc(NC(=O)CSc2nc(-c3ccco3)cc(C(F)(F)F)n2)cc1OC -17.2%
Cc1cccc(N2CCN(C(=O)Cn3nc(C)n4cccc4c3=O)CC2C)c1 (stereo not drawn) -10.7%
CN(Cc1ccccc1)S(=O)(=O)c1nnc(NC(=O)c2cccc(Cl)c2)s1 9.1%
CCCCN(C)CCCNC(=O)Cn1ncc2c3ccccc3n(Cc3ccccc3)c2c1=O -1.56%
Cc1cccc(NC(=O)CSc2nccn2Cc2ccc(F)cc2)c1C -4%
CCOc1ccccc1CN1CCN(S(=O)(=O)c2ccccc2)CC1 2.82%
CCOC(=O)c1c(-c2ccccc2)oc2ccc(NS(=O)(=O)c3cc(C)c(C)cc3C)cc12 -0.828%
Cc1ccc(C(=O)Nc2cc3c(cc2C)n(C)c(=O)c(=O)n3C)cc1 0.966%
Cc1ccccc1NC(=O)c1ccc2c(c1)c(C)c(C)n2Cc1ccccc1 -29.5%
O=C(CN1N=C(c2ccc(Cl)cc2)CCC1=O)NCCc1ccc(Cl)cc1 0.0455%
COc1ccc(S(=O)(=O)N2CCCN(CC(=O)Nc3ccc(NC(C)=O)cc3)CC2)cc1 -0.834%
COCc1nc2ccccc2n1CCOc1cccc(C)c1 -1.66%
CC(=O)c1cccc(NC(=O)c2oc3c(c2C)-c2nn(Cc4ccc(Cl)cc4)cc2CC3)c1 4%
COc1ccccc1NC(=O)CSC1=Nc2ccccc2C2=NC(CC(=O)NCc3ccco3)C(=O)N12 (stereo not drawn) 1.01%
CCc1ccc(-n2nc(C)c3c(C)cc(=O)n(Cc4nc(-c5ccccc5)oc4C)c32)cc1 -10.9%
Cc1ccc(NC(=O)CN2C(=O)CCc3cc(S(=O)(=O)N4CCOCC4)ccc32)cc1F 16.9%
Cc1cccc(CNC(=O)CCn2c(=O)c3cccn3c3ccc(F)cc32)c1 -7.41%
COc1ccc(NC(=O)c2oc3ccc(S(=O)(=O)N4CCCCC4)cc3c2C)cc1 -12.8%
CCOc1ccc(CNC(=O)C2Cc3ccccc3N2C(=O)CC)cc1OC (stereo not drawn) 0%
CCCc1nn2c(=O)cc(COC(=O)c3ccccc3NC(=O)COc3ccccc3F)nc2s1 0.335%
Cc1nc2c(C(=O)NCCCN(CC(C)C)CC(C)C)cnn2c(C)c1Cc1c(F)cccc1Cl 4.88%
CCCOC(=O)c1c(NC(=O)c2nc3ncccn3n2)sc(C(N)=O)c1C 8.15%
COc1cccc(CNCCNC(=O)c2nonc2N)c1 4.81%
O=C(NCc1ccccc1Cl)c1cc2c(s1)-c1ccc(Cl)cc1SC2 -4.84%
CCSc1nc2c([nH]c3ccccc32)c(=O)n1CC 2.36%
Cc1cccc(NS(=O)(=O)c2c(C)nc3sccn3c2=O)c1C -1.52%
CCOC(=O)CSc1nc(-c2ccc(C)cc2C)cc(-c2ccccc2)c1C#N 3.4%
CCOc1ccccc1NC(=O)N1CC(CC)Oc2ccccc21 (stereo not drawn) 12.3%
Cc1ccc(C(=O)CSc2nc(-c3ccccc3)nc3c2CCCC3)cc1 3.56%
CC(C)(C)C(=O)Nc1cccc(-c2cn3cccnc3n2)c1 -2.19%
COc1cccc(-n2c(=O)c3c(C)c(C)sc3n(CC(=O)NCc3ccc(C)cc3)c2=O)c1 -18.9%
Cc1cccc(CSc2ncc(Cl)c(C(=O)Nc3sc4c(c3C(N)=O)CCCC4)n2)c1 -6.07%
O=C(Cn1c(=O)nc(-c2ccccc2)c2ccccc21)Nc1cccc(C(F)(F)F)c1 5.48%
Cc1c(C(=O)NCc2cccc(Cl)c2)sc2ncnc(N(C)C3CCCCC3)c12 -5.3%
COc1ccc(-c2cn(-c3ccc(C)cc3)c(S(=O)(=O)CC(=O)Nc3ccc(F)cc3)n2)cc1 -2.73%
COc1ccccc1NC(=O)c1cc(=O)c2ccc(C)c(C)c2o1 -6.57%
CCOC(=O)c1ccc2c(c1)N(CC(=O)N(C)c1ccccc1)C(=O)c1ccccc1S2 -1.21%
Cc1ccc(Cc2c(C)nc3nc(SCC(=O)NC4CCC(C)CC4)nn3c2C)cc1 (stereo not drawn) 0%
CCOc1ccc(CCNC(=O)c2cc3c(=O)oc4ccc(C)cc4c3s2)cc1OCC 6.97%
